The list shows a part of the results.
T1: UNK ZnF1-3 (human, UniProt Q9C0B0 31-174)
T1 sequence: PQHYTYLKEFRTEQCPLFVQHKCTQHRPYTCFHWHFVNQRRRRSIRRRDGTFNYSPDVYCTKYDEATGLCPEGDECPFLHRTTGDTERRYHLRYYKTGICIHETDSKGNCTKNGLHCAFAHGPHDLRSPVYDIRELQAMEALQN

B1: 90513150_90513270_281_CDS_ENSG00000112159_ENST00000369393|human|control|control (ssRNA)
RNA: GGGAGUUCUACAGUCCGACGAUCCCUUUCCAGCAAAUCCAAAAGGAGAGGGCGAAGCUGGCGACCAACCAGCACAGUACAGUCCUUAUCCAAAAGCAACUGUGCUAAGGUACUCAGGACACACUGGCGAUCUUGAGGUGUCCACAACAGAGGAUUGAGCAUCA
B2: chr2:34708205:34708206:-_ENSMUSG00000026869_ENSMUST00000028225|mus_mus|FALSE|FALSE (ssRNA)
RNA: GGGAGUUCUACAGUCCGACGAUCUUCACUUAGGUACGCUCUGAGCCUCAAAUAAUUUGAGUUCCCAAAGAUCUCUGCAACUGUCUUGGAAUUGGCAAGUGCUUUUACCAGUUCAUAUUUGGCAUCCUUUGAAGCUUUGUCAUGCAACAGAGGAUUGAGCAUCA
B3: chr13:43497316:43497317:+_ENSMUSG00000063200_ENSMUST00000071926|mus_mus|FALSE|FALSE (ssRNA)
RNA: GGGAGUUCUACAGUCCGACGAUCCAAACAAAAUAUGUUUAUGAUUUUUAUAAUGAUCCGUUACAAUGAUUUAUCAGUGACUAAAUUUUGAGAAAUGAACCCUCUCUGCACCCAGUAAUCUUAAACUAUGCAUGCAAAAUGCAGCAACAGAGGAUUGAGCAUCA
B4: chrX:71549400:71549401:+_ENSMUSG00000019087_ENSMUST00000019231|mus_hu|mus_mus_mus_hu_False|68_108 (ssRNA)
RNA: GGGAGUUCUACAGUCCGACGAUCGCAAGGAAGAGGAGGAAGCUCUUCAGUCCAGUGCGCUGCAGGGAGAAACAUGAACAACACGGACACCGUCCCACCCUCAACCCCCCCACUGGCACAGGGUCACACAAUCUGGGUCAAAGACAACAGAGGAUUGAGCAUCA
B5: chr19:2271408:2271409:+_ENSG00000104904_ENST00000602676|hu_mus|FALSE|FALSE (ssRNA)
RNA: GGGAGUUCUACAGUCCGACGAUCUGGGAUCUUCAGGGGUGGGUGAGGGACAUCGCACCACCGAGGCCCCGGACCCAGGUUACUACAGCAAUUAAGGGCAACCCUAGAACUCUCGCUGCUGCAGCCGCCGCGGCUGUGCUGACUCAACAGAGGAUUGAGCAUCA
B6: chr19:60949100:60949101:-_ENSMUSG00000024997_ENSMUST00000025961|mus_hu|FALSE|FALSE (ssRNA)
RNA: GGGAGUUCUACAGUCCGACGAUCACUGGAACCAGAACACAAUAAAUUUGUCAAGCUCGUUCUUCCACAUGCAGCAGGCCUGAGGGCUGCAGUGGCAGAAAUGCCCCAAGGAAUGGCACUCACAUGUCGGGCAACCGACGCUCGCAACAGAGGAUUGAGCAUCA
B7: 216299512_216300462_389_CDS_ENSG00000115414_ENST00000323926|human|control|control (ssRNA)
RNA: GGGAGUUCUACAGUCCGACGAUCUAUCUGAUAGUGUUUUCCAUUGUCAUAACAACCGGGCUUGCUUUGACUGACAGCCACCGGGGACUGGGGCUGAACCAUUUGCUGAGCCUGCCUCUUGCUCUUCGAGGCUCCCGUGGAGGGCAACAGAGGAUUGAGCAUCA
B8: chr7:90019461:90019462:+_ENSMUSG00000057706_ENSMUST00000082237|mus_mus|motif|central (ssRNA)
RNA: GGGAGUUCUACAGUCCGACGAUCCGUCACAAUCGUGUGAUUAUUAAAAUAAUACAGUGUUCUUUGCCAUAAGGCCAUACGGAAAAUAAAAAGAUUUAACCCAGCUACAAAAAAGUUCACUGAACUUAAAUUAAAAUACUUGUACAACAGAGGAUUGAGCAUCA
B9: 7871621_7871741_414_CDS_ENSMUSG00000024283_ENSMUST00000074919|mouse|control|control (ssRNA)
RNA: GGGAGUUCUACAGUCCGACGAUCACCGUCCCUUUCUCUAACUCUCUGAGUGUGCACGUUUUUGGCCUUGUUGUGACCUGUGCUGUCACUGUAUUUGUUUUCAGGACUAUUAGAUCUCCGCAACAUUUUGUUUGGUGGUGAAGGCAACAGAGGAUUGAGCAUCA
B10: chr7:141438946:141438947:+_ENSG00000106028_ENST00000265304|hu_mus|hu_hu_hu_mus_True|98_108 (ssRNA)
RNA: GGGAGUUCUACAGUCCGACGAUCGACUACCUGUAAUACAGGUCUUCCUUCGAAACAUGGCUUCUGUUUUUCUUACAACCUAAUCUUUAGGCUUUUCCUAAAGGAAAGAAAGAAAAGAGAAAAAUGAUAAAUCAAGAAACUACACAACAGAGGAUUGAGCAUCA
B11: chr4:62048941:62048942:+_ENSMUSG00000066150_ENSMUST00000084526|mus_hu|motif|central (ssRNA)
RNA: GGGAGUUCUACAGUCCGACGAUCUUGUGACUUACGCAGCAGGCUCUCUCGGGCUAUCUUGAGUCCUUCAUAGAACAUUGCGGGUAAAAACACUGCCACAAAAGCUCCAGCCAUUUCUCCAGCUGUAUUGAUCACCAAACCGGACAACAGAGGAUUGAGCAUCA
B12: chr1:163112212:163112213:-_ENSG00000143248_ENST00000313961|hu_hu|hu_hu_hu_mus_False|78_78 (ssRNA)
RNA: GGGAGUUCUACAGUCCGACGAUCUUUUAUUAUCAGUAAGAGUGAGUUACAUACUAGAUAAAGUAUUGGAUACAAUAAUCAGGAAACAAACACUAUUGGUCCAGAAUUUAAAACUUUAUGAGCGAAGUGCUGGCACAGGACUUACAACAGAGGAUUGAGCAUCA
B13: chr15:66840984:66840985:+_ENSG00000174442_ENST00000446801|hu_hu|motif|central (ssRNA)
RNA: GGGAGUUCUACAGUCCGACGAUCCUAUUUUUUAAGUUUUCCCAAUACAGUUAAAGCUUUUGGGAUAAAGCUGUAUUUACGGAAAUGAUCCUGUUCUCAUUUGUGGUGCUCGUUCUCUUUGUCAUUUCAGAGCCCUUGCUAAGUCAACAGAGGAUUGAGCAUCA
B14: chr8:101271117:101271118:-_ENSG00000034677_ENST00000519449|hu_mus|motif|central (ssRNA)
RNA: GGGAGUUCUACAGUCCGACGAUCGCAAUCACUGGAGCCGUGACUACAGGACGUUCUCAUGCUUUCUAAGUCUGAGCAGCGGAAUUCAGAAAAAUGACUGGAGUGGGAAUCUGCUACAGACGGCAUGCUGUCACUGAGGGAUGGCAACAGAGGAUUGAGCAUCA
B15: chr7:7679991:7679992:-_ENSG00000106399_ENST00000396682|hu_hu|hu_hu_hu_mus_False|8_98 (ssRNA)
RNA: GGGAGUUCUACAGUCCGACGAUCUGGGAUGAAUCUUUUCCAGCCUCCCCACGAAGCACACGGGCCGGUCGAUAUACUGUGGUAACAUGCUGGCGUUGACGCGCGCUUUGGGGAGCUGCAUUAUGUCCACCAUGAUUCUGCCGCCAACAGAGGAUUGAGCAUCA
B16: chr5:128440902:128440903:+_ENSG00000066583_ENST00000173527|hu_mus|hu_hu_hu_mus_True|78_78 (ssRNA)
RNA: GGGAGUUCUACAGUCCGACGAUCUUGAACGGUGCUGCCAAGUCCUUUGGGGUAUUGUUCUGUUACAAUAACUGGAAUCCCUAAGAUCCGAGCUCCUUGCAACAGUCUCUGUCCCACACUAAUGAUGUCCCCAAAGUAUUUGAUCAACAGAGGAUUGAGCAUCA
B17: chr3:185643329:185643330:-_ENSG00000136527_ENST00000456380|hu_hu|motif|central (ssRNA)
RNA: GGGAGUUCUACAGUCCGACGAUCGACAUGGGAGAAUGGCUGUGGCUGUGCCGUCUACGAUAAUCUCGACUGUAAGACCUGCGGCGUGAUCGUCUAUGGGAGCGGGAGCGAGACCGUGACCGGGUAUAAUGCCUUCGGGAGCUUCAACAGAGGAUUGAGCAUCA
B18: chr7:141438946:141438947:+_ENSG00000106028_ENST00000265304|hu_mus|hu_hu_hu_mus_True|8_88 (ssRNA)
RNA: GGGAGUUCUACAGUCCGACGAUCGACGAAAUACCUGUAACACAGGUGAAACAUGGCUGGCUUCUGUUUUUCUUACAACCUAAUCUUUAGGCUUUUCCUAAAGGAAAGAAAGAAAAGAGAAAAAUGAGCAGGGGAUCAACUACACAACAGAGGAUUGAGCAUCA
B19: chr4:140556289:140556290:+_ENSMUSG00000036622_ENSMUST00000037055|mus_mus|mus_mus_mus_hu_False|38_78 (ssRNA)
RNA: GGGAGUUCUACAGUCCGACGAUCGAUGGAGCUCACCAGGCCCCCUUUUGCCGUGCAGAACCCUGUCCGGGUCACCACUGCCAGGACGUGCGGUCCCACGUAGGCUCGGGCCUGCAAGAUGAGGGUCCCGCAGAAGAGUGUGUGCAACAGAGGAUUGAGCAUCA
B20: chr11:46405157:46405158:+_ENSG00000110492_ENST00000395566|hu_hu|hu_hu_hu_mus_False|8_68 (ssRNA)
RNA: GGGAGUUCUACAGUCCGACGAUCCCCUCCCCACUUUGGGCACUUGGUGUGGGCGUGAGAGGACAGGAUGAUUGAUUAGAGCUGACAGGAAGACAAAAGGCACUGGUGGGUUAUAUCUUGGGCCUGUGAGAGGGAGGGGCUCCGCAACAGAGGAUUGAGCAUCA
B21: chr5:44142225:44142226:-_ENSMUSG00000039753_ENSMUST00000047857|mus_mus|FALSE|FALSE (ssRNA)
RNA: GGGAGUUCUACAGUCCGACGAUCCCCUGCACCAGUUACAGUCAGACAGCCAGAGAGAUUCAGGUGCUCCAGGUAAGGCAGCCCUCCUCCCAGAGUCAGAGCCCUGAGACCAUGGUCUGUGAUCUGGUAACAUCCAGACAGACUCAACAGAGGAUUGAGCAUCA
B22: chrX:16870723:16870724:-_ENSG00000102054_ENST00000404022|hu_mus|FALSE|FALSE (ssRNA)
RNA: GGGAGUUCUACAGUCCGACGAUCCUUAUGCGAUUCAAAGGUGUGGAGUUUUAGUUUCAGAUUACGCAGGUCCCAUAAAGCUACAGUCUUAUCUGCAGAGCCAGUUGCCAGAAUGAACUCGCUGUAGGGAUUGAAUGAGAGGCACAACAGAGGAUUGAGCAUCA

What follows are binders tested against T1, UNK ZnF1-3 (assay: nsRBNS (natural sequence RNA bind-n-seq); RBNS binding buffer (assumed for nsRBNS): 25 mM Tris pH 7.5, 150 mM KCl, 3 mM MgCl2, 0.01% Triton X-100, 500 ug/ml BSA, 20 U/ml SUPERase-In, 4 C; UNK is unkempt and MSI1 is Musashi-1; names of the RNAs are library labels; protein concentration not given here; high values mean tight binding).

Row | Binder | binding signal [enrichment R]
1 | B1 | 0.874
2 | B2 | 0.662
3 | B3 | 1.23
4 | B4 | 1.88
5 | B5 | 0.961
6 | B6 | 0.988
7 | B7 | 0.669
8 | B8 | 1.93
9 | B9 | 0.437
10 | B10 | 0.413
11 | B11 | 0.6
12 | B12 | 1.19
13 | B13 | 0.478
14 | B14 | 1.45
15 | B15 | 0.517
16 | B16 | 0.449
17 | B17 | 1.5
18 | B18 | 0.856
19 | B19 | 0.684
20 | B20 | 2.03
21 | B21 | 0.874
22 | B22 | 1.36

— article PMC12136788
